This note sets out measurements from ChEMBL document CHEMBL1201862, “PubChem BioAssay data set” (2004).

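Method: 48-hour compound exposure of cells in 96-well plates, five concentrations, linear interpolation of endpoints. GI50 is the concentration that inhibits growth by half.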 The source made the active and inactive calls. Cut-off read from the data, not from the text of the source: active = GI50 up to about 1.1 µM and inactive = higher. Numbered stars: 1 amine (or outer) side, 2 acyl side, 3 side chain; on linkers, the order of the positions; unused ones are H or OH. Bridge positions count the residues as written; N and C are the ends. Square brackets hold non-standard residues; d marks the D form. Peptide text beside a SMILES is read from it. * marks the point of attachment. ξ: configuration not given here. X32 = CC[C@H](C)[C@@H](N[*:1])[C@@H](O)CC(=O)O[C@H](C(=O)[C@H](C)C(=O)[*:2])C(C)C; X54 = COc1c(N[*:1])cccc1C(=O)O[C@H](C(=O)[C@H](C)C(=O)[*:2])C(C)C; X53 = CC(C)C[C@H](C(=O)[*:2])C(C)C(=O)C1CCCN1[*:1]; Phe(4-NO2) = N[CH](Cc1ccc([N+](=O)[O-])cc1)C(=O)O; X34 = O=C(OCc1ccccc1)[C@@H]1CCC[C@H]1N*; Phe(4-Cl) = N[CH](Cc1ccc(Cl)cc1)C(=O)O; X27 = CC(=O)N(C)SCC(N[*:1])C(=O)[*:2]; X31 = O=C(C(CCCCNO[*:3])N[*:1])[*:2]; 2Nal = N[CH](Cc1ccc2ccccc2c1)C(=O)O; Fmoc = O=C(OCC1c2ccccc2-c2ccccc21)*; NMeY = CN[C@@H](Cc1ccc(O)cc1)C(=O)O; ξW = NC(Cc1c[nH]c2ccccc12)C(=O)O; dNMeL = CN[C@H](CC(C)C)C(=O)O; Hyp = O=C(O)[CH]1C[CH](O)CN1; ξF = NC(Cc1ccccc1)C(=O)O; Ac5c = NC1(C(=O)O)CCCC1; Cbz = O=C(OCc1ccccc1)*; ξΔPro = O=C(O)C1C=CCN1; Boc = CC(C)(C)OC(=O)*; Lac = C[C@H](O)C(=O)O; OSu = O=C1CCC(=O)N1O*; Aib = CC(C)(N)C(=O)O; ξK = NCCCCC(N)C(=O)O; ξT = CC(O)C(N)C(=O)O; OBn = c1ccc(CO*)cc1; ξP = O=C(O)C1CCCN1; Bn = c1ccc(C*)cc1; tBu = CC(C)(C)*; NHNH2 = NN*; For = O=C*

This test deals with NCI-H322M. Description: inhibition of tumour cell growth, NCI panel, 48 h.
Take `CC(=O)N(C)SCC(NC(=O)C(Cc1ccccc1)NC(=O)OCc1ccccc1)C(=O)NC(Cc1ccccc1)C(=O)NC(Cc1cn(C=O)c2ccccc12)C(=O)NC(CCCCNC(=O)OCc1ccccc1)C(=O)NC(C(=O)NC(CSN(C)C(C)=O)C(=O)NC(C(N)=O)C(C)OCc1ccccc1)C(C)OCc1ccccc1` (stereo not given) (Cbz-F[X27]FW(For)K(Cbz)T(Bn)[X27]T(Bn)-NH2; configuration not given here): the GI50 is inactive: > 100 µM. The value for `CC(=O)N(C)SCC(NC(=O)C(Cc1ccccc1)NC(=O)OCc1ccccc1)C(=O)NC(Cc1ccccc1)C(=O)NC(Cc1c[nH]c2ccccc12)C(=O)NC(CCCCNC(=O)OCc1ccccc1)C(=O)NC(C(=O)NC(CSN(C)C(C)=O)C(=O)NC(C(N)=O)C(C)OCc1ccccc1)C(C)OCc1ccccc1` (stereo not given) (Cbz-F[X27]FWK(Cbz)T(Bn)[X27]T(Bn)-NH2; configuration not given here) was inactive: > 100 µM; that for `NC(=O)CNC(=O)C1CC(O)CN1C(=O)C1CCCN1C(=O)OCc1ccccc1` (stereo not drawn) (Cbz-Pro-[Hyp]-Gly-NH2; configuration not given here) was inactive: > 100 µM; that for `CCOC(=O)CNC(=O)C(Cc1ccccc1)NC(=O)C(C)(C)NC(=O)OCc1ccccc1` (stereo not given) (Cbz-[Aib]-[ξF]-Gly-OEt) was inactive: > 100 µM. The value for `CC(C)(NC(=O)OCc1ccccc1)C(=O)NC(Cc1ccccc1)C(=O)NN` (stereo not given) (Cbz-[Aib]-[ξF]-NHNH2) was inactive: > 100 µM. `COC(=O)C(C)(C)NC(=O)C(Cc1ccccc1)NC(=O)C(C)(C)NC(=O)OCc1ccccc1` (stereo not given) (Cbz-[Aib]-[ξF]-[Aib]-OMe): the GI50 was inactive: > 100 µM. The result for `CC(=O)N(C)SCC(NC(=O)C(Cc1ccccc1)NC(=O)OCC1c2ccccc2-c2ccccc21)C(=O)NC(Cc1ccccc1)C(=O)NC(Cc1cn(C=O)c2ccccc12)C(=O)NC(CCCCNC(=O)OCC1c2ccccc2-c2ccccc21)C(=O)NC(C(=O)NC(CSN(C)C(C)=O)C(=O)NC(C(N)=O)C(C)O)C(C)O` (stereo not given) (Fmoc-F[X27]FW(For)K(Fmoc)T[X27]T-NH2; configuration not given here) reads inactive: > 100 µM; that for `CC(C)(C)OC(=O)NCCCCC(NC(=O)C(Cc1c[nH]c2ccccc12)NC(=O)OCC1c2ccccc2-c2ccccc21)C(=O)N1CCCC1C(=O)NCC(N)=O` (stereo not given) (Fmoc-WK(Boc)PG-NH2; configuration not given here), inactive: > 100 µM. As for `NC(=O)CNC(=O)C1CCCN1C(=O)C1CCCCNOC(=O)CC[C@@H](NC(=O)OCC2c3ccccc3-c3ccccc32)C(=O)NC(Cc2c[nH]c3ccccc23)C(=O)N1` (stereo not given in full) (Fmoc-[dE][ξW][X31][ξP]G-NH2; ester 1-3), the GI50 is inactive: > 100 µM.

`CC(OC(C)(C)C)C(NC(=O)C(CCCCNC(=O)OC(C)(C)C)NC(=O)C(Cc1c[nH]c2ccccc12)NC(=O)C(Cc1ccccc1)NC(=O)OCC1c2ccccc2-c2ccccc21)C(=O)NC(Cc1ccccc1)C(=O)N[C@@H]1CCC[C@H]1C(=O)OCc1ccccc1` (stereo not given in full) (Fmoc-[ξF][ξW][ξK](Boc)[ξT](tBu)[ξF]-X34): the GI50 is inactive: > 100 µM. Regarding `CC(C)CC(NC(=O)C(N)CCC(=O)OCc1ccccc1)C(=O)NC(COCc1ccccc1)C(=O)NC(Cc1ccccc1)C(=O)ON1C(=O)CCC1=O` (stereo not given) (H-E(OBn)LS(Bn)F-OSu; configuration not given here), the GI50 is inactive: 31.5 µM. The result for `CC(C)CC(NC(=O)C(CC(C)C)NC(=O)C(Cc1c[nH]cn1)NC(=O)C(C)NC(=O)C(NC(=O)C(C)NC(=O)C(Cc1c[nH]c2ccccc12)NC(=O)C(CCC(=O)O)NC(=O)C(N)Cc1ccccc1)C(C)C)C(N)=O` (stereo not given) (H-FEWAVAHLL-NH2; configuration not given here) reads inactive: > 12.5 µM; that for `CC(OC(C)(C)C)C(NC(=O)C(CCCCNC(=O)OC(C)(C)C)NC(=O)C(Cc1c[nH]c2ccccc12)NC(=O)C(N)Cc1ccccc1)C(=O)NC(Cc1ccccc1)C(=O)NC1(C(=O)O)CCCC1` (stereo not given) (H-FWK(Boc)T(tBu)F[Ac5c]-OH; configuration not given here), inactive: > 100 µM; that for `CC(O)C(NC(=O)C(Cc1ccccc1)NC(=O)C(NC(=O)C(CCCCN)NC(=O)C(Cc1c[nH]c2ccccc12)NC(=O)C(Cc1ccc(O)cc1)NC(=O)C(Cc1ccc(Cl)cc1)NC(=O)C(N)Cc1ccccc1)C(C)O)C(N)=O` (stereo not given) (H-F[Phe(4-Cl)]YWKTFT-NH2; configuration not given here), inactive: 19.3 µM. Consider `CC(NC(=O)C(Cc1ccc([N+](=O)[O-])cc1)NC(=O)C(N)CCCCN)C(=O)NC(Cc1ccc([N+](=O)[O-])cc1)C(N)=O` (stereo not given) (H-K[Phe(4-NO2)]A[Phe(4-NO2)]-NH2; configuration not given here), for which the GI50 was inactive: 26 µM.

`NC(=O)C1CCCN1C(=O)C(N)Cc1ccccc1` (stereo not drawn) (H-Phe-Pro-NH2; configuration not given here): the GI50 is inactive: > 100 µM. The result for `CCC(C)C(NC(=O)C(CCCCN)NC(=O)C(NC(=O)C(CCC(N)=O)NC(=O)C(N)CCCNC(=N)N)C(C)CC)C(=O)NC(Cc1c[nH]c2ccccc12)C(=O)NC(Cc1ccccc1)C(=O)NC(CCC(N)=O)C(=O)NC(CC(N)=O)C(=O)NC(CCCNC(=N)N)C(=O)NC(CCCNC(=N)N)C(=O)NC(CCSC)C(=O)NC(CCCCN)C(=O)NC(Cc1c[nH]c2ccccc12)C(=O)NC(CCCCN)C(=O)NC(CCCCN)C(=O)N1CCCC1C(=O)NC(C)C(=O)NC(CCCCN)C(=O)NC(CCCNC(=N)N)C(=O)NC(CCCCN)C(=O)NC(CC(C)C)C(=O)NC(Cc1ccccc1)C(=O)NCC(=O)O` (stereo not given) (H-RQIKIWFQNRRMKWKKPAKRKLFG-OH; configuration not given here) reads inactive: > 25 µM; that for `COC(=O)C(CC(C)C)NC(=O)C(N)Cc1ccc(OCc2ccccc2)cc1` (stereo not given) (H-Tyr(Bn)-Leu-OMe; configuration not given here), inactive: > 10 µM; that for `CC(C)CC(NC(=O)C(Cc1ccccc1)NC(=O)C(Cc1c[nH]c2ccccc12)NC(=O)CNC(=O)C(N)Cc1ccc(O)cc1)C(=O)O` (stereo not given) (H-YGWFL-OH; configuration not given here), inactive: > 100 µM. The result for `CC(C)C(NC(=O)C(CCCCN)NC(=O)C(Cc1c[nH]c2ccccc12)NC(=O)C(Cc1ccc(O)cc1)NC(=O)C(CS)NC(=O)C(N)Cc1ccc2ccccc2c1)C(=O)NC(CS)C(=O)NC(C(N)=O)C(C)O` (stereo not given) (H-[2Nal]CYWKVCT-NH2; configuration not given here) reads inactive: > 12.5 µM; that for `COc1ccc(C[C@H]2C(=O)O[C@H](C)[C@H](NC(=O)[C@@H](CC(C)C)C(C)C(=O)C3CCCN3C(=O)[C@H](C)O)C(=O)Nc3cccc(c3OC)C(=O)O[C@@H](C(C)C)C(=O)[C@H](C)C(=O)N[C@@H](CC(C)C)C(=O)N3CCC[C@H]3C(=O)N2C)cc1` (stereo not given in full) (H-[Lac][X53]T[X54]LP[NMeY](Me); ester 3-C), inactive: > 12.5 µM; that for `CC[C@H](C)[C@H]1NC(=O)[C@@H](NC(=O)[C@@H](CC(C)C)N(C)C(=O)C2C=CCN2)[C@@H](C)OC(=O)[C@H](Cc2ccc(OC)cc2)N(C)C(=O)[C@@H]2CCCN2C(=O)[C@H](CC(C)C)NC(=O)[C@@H](C)C(=O)[C@H](C(C)C)OC(=O)C[C@@H]1O` (stereo not given in full) (H-[ξΔPro][dNMeL]T[X32]LP[NMeY](Me); ester 3-C), active: < 0.005 µM.

Turning to `CC(C)C[C@H](NC(=O)[C@H](CC(C)C)NC(=O)[C@@H](Cc1c[nH]c2ccccc12)NC(=O)[C@H](Cc1ccccc1)NC(=O)[C@@H](Cc1c[nH]c2ccccc12)NC(=O)[C@H](CCC(N)=O)NC(=O)[C@H](CCC(N)=O)NC(=O)[C@H]1CCCN1C(=O)[C@@H](N)CCCCN)C(N)=O` (HELM PEPTIDE1{K.[dP].Q.Q.[dW].F.[dW].L.L.[am]}$$$$V2.0), the GI50 was inactive: > 100 µM. The value for `CSCC[C@H](NC(=O)[C@H](CC(C)C)NC(=O)[C@H](Cc1c[nH]cn1)NC(=O)CNC(=O)C1N(C(=O)[C@@H](C)NC(=O)[C@H](Cc2c[nH]c3ccccc23)NC(=O)[C@H](CCC(N)=O)NC(=O)[C@@H](N)CC(N)=O)CSC1(C)C)C(N)=O` (stereo not given in full) (HELM PEPTIDE1{N.Q.W.[dA].[CC1(C)SCN([*:1])C1C(=O)[*:2]].G.H.L.M.[am]}$$$$V2.0) was inactive: > 25 µM; that for `N=C(N)NCCC[C@H]1NC(=O)[C@@H](CCC(=O)O)NC(=O)[C@@H](CC(=O)O)NC(=O)[C@@H](CCC(=O)O)NC(=O)[C@H](Cc2c[nH]c3ccccc23)NC1=O` (HELM PEPTIDE1{W.[dE].[dD].[dE].[dR]}$PEPTIDE1,PEPTIDE1,1:R1-5:R2$$$V2.0) was inactive: > 7.5 µM. Regarding `CC(C)[C@@H](C(=O)N1CCC[C@H]1C(=O)OCc1ccccc1)N(C)C(=O)[C@H](C(C)C)N(C)C(=O)[C@H](Cc1ccccc1)N(C)C(=O)[C@H](NC(=O)OC(C)(C)C)C(C)C` (HELM PEPTIDE1{[CC(C)(C)OC(=O)[*:2]].[dV].[meF].[meV].[meV].P.[c1ccc(CO[*:1])cc1]}$$$$V2.0), the GI50 is inactive: > 50 µM. Consider `CC(C)[C@@H]1OC(=O)[C@@H](C)NC(=O)[C@@H]2CCCN2C1=O` (HELM PEPTIDE1{[CC(C)[C@H](O[*:1])C(=O)[*:2]].P.[dA]}$PEPTIDE1,PEPTIDE1,1:R1-3:R2$$$V2.0), for which the GI50 is inactive: > 100 µM.

As for `C=CCC1OC(=O)CCNC(=O)[C@H](C)N(C)C(=O)[C@H](C(C)C)N(C)C(=O)[C@H](C(C)CC)NC(=O)[C@@H]2CCCN2C1=O` (stereo not given in full) (HELM PEPTIDE1{[CCC(C)[C@H](N[*:1])C(=O)[*:2]].[meV].[meA].[bAla].[C=CCC(O[*:1])C(=O)[*:2]].P}$PEPTIDE1,PEPTIDE1,1:R1-6:R2$$$V2.0), the GI50 was inactive: > 22.9 µM. The result for `CCCCCC(=O)N[C@H](C(=O)N[C@H](C(=O)N(C)[C@@H](CC(C)C)C(=O)N1CCC[C@H]1C(=O)N1CCC[C@H]1C(=O)O[C@H](C(=O)N1C(=O)C=C(OC)[C@@H]1Cc1ccccc1)C(C)C)C(C)C)C(C)C` (HELM PEPTIDE1{[CCCCCC(=O)[*:2]].V.V.[meL].P.P.[COC1=CC(=O)N(C(=O)[C@@H](O[*:1])C(C)C)[C@H]1Cc1ccccc1]}$$$$V2.0) reads inactive: 57 µM; that for `NC1(C(=O)NC2(C(=O)O)CCCC2)CCCC1` (HELM PEPTIDE1{[NC1(C(=O)[*:2])CCCC1].[O=C(O)C1(N[*:1])CCCC1]}$$$$V2.0), inactive: > 100 µM.
